Data: PubChem BioAssay (NCI)
The source holds several records for some structures; these can differ, active in one and inactive in another.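 Note: values are percent growth. 100 is the growth of untreated cells, values between 100 and 0 indicate rising inhibition; between -100 and 0 indicates cell death.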 For part of its entries the source gives two or more results. They are shown here; other results are not. The calls were made as follows: active = growth percent below 10; inactive = the rest. The source may hold further records. This drug was run again and again over the years, at the concentration stated with the values; each value is one run. Marks such as (2×) say how often a value occurs here.

System: NCI-H322M lung
Assay: NCI-60 one-dose screen, 48 h (100 = growth as untreated, 0 = no growth, -100 = all killed)

Q: What does the source list for COc1cccc2c1C(=O)c1c(O)c3c(c(O)c1C2=O)C[C@@](O)(C(=O)CO)C[C@@H]3OC1CC(N)C(O)C(C)O1 (stereo not given in full)?
A: growth (0.25 µM, runs of 2012): inactive: 101 (5×), 83.3, 88.6, 74.9, 91.5, 98.5, 87.3, 78.7, 89.8, 88, 84.5 (2×), 90.2, 87.1, 102, 100, 94.7, 96.6, 91.6, 90.8 (2×), 99.5, 98.1 (2×), 94.4, 93.5, 86.8, 93.4, 92.1, 85 (2×), 96.7, 95.2 (3×), 92.2 (2×), 96.3, 94.5, 107, 95.3, 97.5, 95.9, 104, 95 (2×), 96.8, 91.4, 85.8, 103, 90.4 (2×), 83.2, 85.5, 93.8, 88.4, 87.4, 46.8%; growth (0.25 µM, runs of 2013): inactive: 81.6 (3×), 86.3 (3×), 84 (2×), 89.7, 83.6, 93.6, 82.2, 88.4, 85.6, 91.6, 86.7, 88.1 (2×), 85.5 (2×), 87.2 (2×), 85.7 (2×), 81.4, 84.3 (2×), 87.4, 96.2, 92, 88.6, 80.9 (2×), 99.7, 95.1 (2×), 86.9 (2×), 94.1, 90.8, 89.8, 98.1, 89.5, 99.1, 89.1, 94.8, 92.5, 86.4, 86.8, 97.3, 78.9, 88.7, 76.6, 90.3, 84.8, 91.2, 72.8, 68.5, 64.5, 72.5, 58.3, 73.8 (2×), 84.1 (2×), 80.7, 79.2, 93.4, 75.8%; growth (0.25 µM, runs of 2014): inactive: 83.5, 81.8, 70.5, 84.1, 85 (2×), 92.7, 85.7, 88.4, 90.4, 86.8 (2×), 90.9, 82.1 (2×), 90.5, 94.1, 87.1 (2×), 90.6, 87.2, 88.5 (2×), 83.2, 89.3, 84.5, 81.7, 89.1, 92.3, 87.4, 88.3 (2×), 85.1, 84 (2×), 91.4, 82.8 (2×), 81.6 (2×), 89.2, 91.5, 82.2, 72.3, 76.5 (2×), 77.8, 76.6, 73.6, 76.9 (2×), 76.1, 85.5, 82.9, 82.4, 78.1, 76.7, 78.8 (2×), 75.8 (2×), 80.4, 86.1, 79.2, 84.7, 81.2, 81.4, 71, 74.8, 81.9, 82.3, 78.2%; growth (0.25 µM, runs of 2015): inactive: 84.1 (2×), 75.3, 73.9, 73.5, 80 (2×), 79.8, 88.9, 74.2, 85.1 (2×), 82.2, 78.8 (2×), 97.4, 68.8, 75 (2×), 76.8, 62.1 (2×), 78.1, 71.9, 77, 84.3, 79.5, 80.5, 81.5 (2×), 78, 78.7, 81.6, 72.3, 82.5, 77.6, 70.6, 79.7 (2×), 69.6 (2×), 66.6, 79.2 (2×), 75.1, 68 (2×), 66.7, 76.1, 69.8, 72.8, 70.2, 69.1 (2×), 70.9, 74.1, 84.5, 64.5, 84.7, 71, 77.3, 76.5, 72.9, 74.9, 77.1, 74.8, 73.6, 79, 73.2, 73.8, 87.1, 80.6, 81.7, 85.5%; growth (0.25 µM, runs of 2016): inactive: 81.8 (2×), 74.4, 79.5 (2×), 66.9, 70.7, 73.8, 75.9, 65.8, 75.8, 72.7, 76.8 (3×), 65.4, 75.2 (2×), 61.4, 64.5, 64.7, 66.2 (2×), 70, 63.3, 63.4, 75.5 (2×), 69.1, 77.2, 77.6 (2×), 59.6, 76.1, 64.2, 70.8, 73.6, 63, 71.7, 72.2, 85.4, 71.5, 82.1, 74.3, 79.6 (2×), 72.8, 69.9, 69.8, 77.8, 66.3, 64.9, 86.4, 82.5, 82.3, 77.1, 79.8, 80.3, 81.5, 81.2, 80.6, 81.3, 82.4, 82, 83.2 (2×), 73.7, 76.5, 78.8, 75.1, 77, 74.1, 78.5, 80, 82.9%; growth (0.25 µM, runs of 2017): inactive: 75.7 (2×), 67.7, 71, 72.9 (2×), 75.4, 73.4 (2×), 75 (4×), 73.7, 72.2 (4×), 74.7 (2×), 74.2, 69.9, 71.8, 78.2, 74.9 (2×), 68.9, 72.5 (2×), 75.5, 71.9, 70.9, 70 (3×), 74.6 (3×), 73.3 (2×), 75.8, 69.7 (2×), 75.1 (2×), 70.8, 73.6 (2×), 72.1 (4×), 71.5, 76.1, 74.3, 75.6 (2×), 72.8, 76.8, 71.6 (2×), 72.3, 78.1 (2×), 73.5 (2×), 70.5, 72, 71.2, 80.6, 69.1, 69.5, 72.7, 65.6, 73.8, 77.2, 67.5, 75.9, 78%; growth (0.25 µM, runs of 2018): inactive: 80.6 (2×), 80.8, 74.2, 74.3, 74.8, 71, 68.4, 72.1 (2×), 68.1, 71.2, 67, 79, 83.6 (3×), 78.7 (4×), 82.9, 75.6, 86.7, 83.4, 79.5, 77.1, 78.8, 74.6, 72.5, 70.1, 77.2, 72 (2×), 78.1, 79.7, 72.2, 78.2, 75.8, 81 (2×), 75.2, 80.1, 85.5, 74.4, 82.8, 82.2, 78.9, 81.8, 75.7, 69.1%; growth (0.25 µM, runs of 2019): inactive: 64.7, 69.5, 68.8, 72.5 (2×), 73.9 (2×), 68.1, 69.3, 86.4, 84.8, 82.1, 78.8, 76.1 (2×), 77.2 (2×), 75, 77.3 (3×), 73.1, 74.9, 83.2, 81, 79.5, 80.8 (2×), 73.5, 77, 78.1, 76.9, 75.2, 77.1, 82.2, 78.2, 75.6, 86.5, 81.8, 76.8, 77.8%; growth (0.25 µM, runs of 2020): inactive: 74.2, 77.6, 77.8, 74.1, 75.2 (2×), 72.8 (2×), 80.1, 76.7 (2×), 74.9, 73.6, 79.9, 75.1, 72.1, 72.3, 74.4 (2×), 81.5, 74, 82.1, 76.1, 78.2, 75.9, 79%; growth (0.25 µM, runs of 2021): inactive: 82.1, 82.9 (2×), 82.8, 85.2, 79.5 (3×), 80.1, 80 (2×), 81.6, 78.1, 78.8 (2×), 76.1, 79.6, 76.4 (3×), 80.9, 78.5, 76.8, 77 (2×), 79.2, 81.3, 77.1, 77.6, 73.3, 86.1, 71.2, 64.3, 78 (2×), 73.8 (2×), 73.5 (2×), 74.2, 81.9, 82.4, 80.6, 81, 75.7, 75.4, 74.9, 63.6, 83.6, 70.1, 68.5, 78.7, 77.3%; growth (0.25 µM, runs of 2022): inactive: 43.3, 45.3, 70.8, 78.9, 32.3, 73.4, 59.9, 74.4 (2×), 73.7, 79.5, 73.2, 72.9, 74.1, 78.1, 77.9, 73.5, 86.2, 90.9, 75.9, 88.4, 87.3, 97.8, 77.6, 78.7, 76.5%; growth (25 µM, runs of 1991): active: -35.2, -14, -29.6, -23.7, -18.6, -33.8, 0.588, -22.4, -15.3, -25.6, -28.7, -11.7, -37.9, -56.2, -32.9, -34.9% and inactive: 60.2%; growth (25 µM, runs of 1992): active: -54.9, -44.5, -47.9, -28.1 (2×), -31.7, -22.5, -35, -40.4 (2×), -45.3, -30.3, -40.1 (2×), -38.5, -35.8, -21.2 (2×), -32.3 (2×), -7.97, -33.6, -40.3, -24.9, -30.9, -46.9, -29.6 (2×), -35.4 (2×), -24.8, 4.87, -2.33, -23 (2×), 0.064, -46.6, -44.6 (2×), -48, -26.4 (3×), -31.5 (2×), -38.3, -7.02, -18.4, -14.5, -32.7, -37.6, -32.4, -48.7, -31.1, -41.2, -18.3, -24.2, -43.6, -34, -31.6, -48.4, -33, -22.3, -27 (2×), -36.6, -11.6, -32.5 (2×), -18.2, -31.2, -27.4, -35.6, -27.2, -2.29, -12.4, 4.05, -29.1, -27.5, -27.3, -18.6, -33.5, -22.4, -18.9, -29.4, -62.3, -10.9, 9.69, -28.7, -17.9, -41.6, -41.5, -55.1, -33.2, -14.6, -37.7, -35.1, -51.8, -22.7, -39.1 (2×), -23.2, -15.4, -28.5, -37.2, -32.1, 6.69, -40.5, -44, -66.4, 1.5, -36.8%; growth (25 µM, runs of 1993): active: -19.1, -22.3, -36, -28.9, -38.2, -30.3, -35.5, -33.6, -41.1, -31.7, -19.8, -16.9, -27.3, -13.8, -25.5, -41.7, -29.8, -12.3, -5.64, -17.4, -24.9, -45.7, -45.6, -11.5, -29.6 (2×), -43.6, -24.4, -37.7, -32.6, -20.5, 2.35, -45.2, -27.4, -7.86, -10.2, -33.4, -41.6, -50.6, -59, -55.2, -35%; growth (25 µM, runs of 1994): active: -40.4, -59.3, 2.64, -39.7, -10.6, -69.1, -16, -20.4, -18.4, -43.7, -40.7, -63.9, -38.3, -16.8, -35.7, -35.1, -25.6, -39.2, -2.64, -9.33, -9.08, -24.4, -26.2, -12.3, -26.6, -36.8, -1.78% and inactive: 11%, 10.2%
